These results are taken from PubChem BioAssay AID434955 (Southern Research Specialized Biocontainment Screening …, 2010).

One may read the inhibition as the change of the read-out against control, counted positive when it falls.

Several values for one entry are separate records, joined by “and”; a condition that tells them apart may be missing. Equal entries are not always repeated. The list shows a part of the results. Shown are side measurements of this screen, not its main read-out; they come without a call. Most of these compounds were active or inconclusive in the main read-out, so they are no random draw.

The test in a line: beta-lactam sensitization of Mtb H37Rv, H37Rv (AID 434955).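 Also: growth measured after seven days incubation then overnight dye step; 0% = bacteria only wells and 100% = bacteria with antibiotic.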 As to conditions: M. tuberculosis H37Rv growth with meropenem, percent inhibition; measured here: primary screen without meropenem; at 25 µM.
Regarding `CCOC(=O)c1oc2ccccc2c1NC(=O)c1ccco1`, the inhibition is 10.3%. To `CCC(=O)N1CCN(c2ccc(NC(=S)NC(=O)c3ccc(OC)c([N+](=O)[O-])c3)cc2)CC1` belongs 31.7%; to `COc1cccc(C(=O)N(CN2CCCC2=O)c2cccc(Cl)c2)c1OC`, 5.41%. The result for `CCOC(=O)C1CCN(C(=O)CNS(=O)(=O)c2cccs2)CC1` reads 1.37%. The result for `O=C(O)CCCN1C(=O)/C(=C\c2ccc(-c3nc4ccccc4s3)o2)SC1=S` reads 7.32%; that for `COc1ccccc1NC(=O)/C(C#N)=C/c1ccc(OCCN2CCOCC2)c(OC)c1`, 1.02%; that for `Cc1ccc(C(=O)N2CCNC(=O)C2CC(=O)Nc2ccc(F)cc2)cc1C` (stereo not drawn), -1.03%.

Regarding `CC1=C(C(=O)O)N2C(=O)C(NC(=O)c3ccccc3Cl)C2SC1` (stereo not drawn), the inhibition was -7.44%. The result for `CCCCNC(=O)CCCCCNS(=O)(=O)c1ccc(OC)cc1` reads 3.12%; that for `CC(=O)c1ccc(-n2c(C)ccc2-c2ccccc2)cc1`, 18.7%. The result for `Cc1ccccc1C1CC(c2ccc(F)cc2)Nc2nc(N)nn21` (stereo not drawn) reads -4%. The result for `COc1ccc(N=C2S/C(=C\c3ccc(N4CCOCC4)o3)C(=O)N2CCc2c[nH]c3ccccc23)cc1` reads 47.2%. Regarding `Oc1cccc(/C=N/n2c(C3CCCCC3)n[nH]c2=S)c1`, the inhibition was -1.37%.

Consider `Cc1nc(SCC(=O)c2cc3ccccc3oc2=O)c(C#N)c(-c2ccccc2)c1C(=O)Nc1ccccc1`, for which the inhibition worked out at 17.1%. Take `COC(=O)[C@H](C)NC(=O)NCc1ccco1`: the inhibition amounted to 5.32%. The result for `CCCCNC(=O)c1onc(CSc2ccccc2C)c1C(=O)O` reads 17.6%. As for `COc1cc(C(=S)N2CCCC2)cc(Cl)c1OCC(=O)Nc1ccc(C)cc1C`, the inhibition was -2.24%. The result for `CCC(C)(C(=O)NC1CCCCC1)N(Cc1cccs1)C(=O)Cc1cccs1` (stereo not drawn) reads -2.2%; that for `Cc1cnc(C(=O)OCC(=O)Nc2oc(-c3ccccc3)c(-c3ccccc3)c2C#N)cn1`, 1.05%. On to `COc1ccc(C)cc1S(=O)(=O)N1CCN(S(=O)(=O)c2cc(C)ccc2OC)CC1`, for which the inhibition was -1.65%. For the compound `C=CCN(CC=C)C(=S)Nc1ccccc1`, the inhibition was determined as 0.43%. Regarding `Cc1ccc(C(=O)Nc2nc3ccccc3s2)s1`, the inhibition was 22.4%. Turning to `Cc1ccc(C(=O)COC(=O)CCN2C(=O)C3C4CCC(C4)C3C2=O)cc1C` (stereo not drawn), the inhibition was determined as 15.8%. To `CCOc1ccc(/C=N/NC(=O)c2ccccc2O)cc1CN1CC2CC(C1)c1cccc(=O)n1C2` (stereo not drawn) belongs 70.5%. To `CC(C)CC(=O)N1CCN(c2ccc([N+](=O)[O-])c(NCc3ccccc3)c2)CC1` belongs 19.6%. To `Cc1cccc(NC(=O)c2ccc(N3C(=O)C4C5C=CC(C6CC56)C4C3=O)cc2)c1` (stereo not drawn) belongs 4.24%. As to `CCN(Cc1ccccc1)C(=O)COc1cc(=O)n(CC)c2ccccc12`, the inhibition is -6.03%. The result for `COc1cc2c(cc1OC)C(C(=O)N1CCOCC1)C(c1cccs1)N(C)C2=O` (stereo not drawn) reads -9.46%.

On to `Cc1cc(C(=O)N2CCN(C(c3ccccc3)c3ccccc3)CC2)no1`, for which the inhibition was -3.43%. To `CO/N=C(\C(=O)N[C@@H]1C(=O)N2C(C(=O)O)=C(COC(C)=O)CS[C@H]12)c1csc(N)n1` (stereo in doubt) belongs -8.39% and -10.7% and -2.57%. To `Cc1ccc(-n2c(SCC(=O)OC(C)C)nnc2-c2ccco2)cc1` belongs 42.9%. The result for `CCC1Nc2ncnc(N3CCN(c4ccccc4)CC3)c2N(Cc2ccc(Br)cc2)C1=O` (stereo not drawn) reads 12.5%; that for `COc1ccc(Cl)cc1NC(=O)NNC(=O)c1ccccn1`, 11.5%; that for `O=C(NCc1ccccc1)C1CCN(C(=O)Cc2ccccc2)CC1`, 3.29%.

Turning to `COc1ccc(Cl)cc1NC(=O)C/C(C)=N/NC(=O)CC#N`, the inhibition is 27.3%. To `CCOC(=O)c1cc(-c2ccc(C)cc2)n(CCC(=O)N2CCN(c3ccccn3)CC2)c1C` belongs 46.6%. The result for `O=C(Nc1nc(-c2ccc(F)c(F)c2)cs1)c1cnccn1` reads -0.42%; that for `Cc1ccccc1Nc1nnc(SCC(=O)NC(=O)Nc2ccc3c(c2)OCCO3)s1`, 31.3%; that for `O=C1CC(SC(=Nc2ccccc2)Nc2ccccc2)C(=O)N1c1ccc(Cl)c(Cl)c1` (stereo not drawn), -1.11%. The result for `O=C1C=C(N2CCN(C3=CC(=O)CCC3)CC2)CCC1` reads 0.43%; that for `COC(=O)CSc1nnc(-c2cccnc2)o1`, -7.67%.

Regarding `CC(C)N=C(NS(=O)(=O)c1cccs1)c1ccccc1`, the inhibition turned out to be 1.88%. Regarding `N#Cc1ccc(COC(=O)CCc2c[nH]c3ccccc23)cc1`, the inhibition was 94.1%.

As to `Cn1cccc1/C=C1/C(=O)NC(=O)N(Cc2ccc(F)cc2)C1=O`, the inhibition stood at 11.8%. The result for `CCN(CC)C(=O)c1ccc(NC(=S)NC(=O)CCc2ccccc2)cc1` reads 85.9%; that for `O=S(=O)(c1ccc(-c2cn3ccccc3n2)cc1)N1CCOCC1`, -6.21%; that for `CC(C)N1CCc2c(sc(NC(=O)c3cc(-c4cccs4)nc4ccccc34)c2C(N)=O)C1`, 32.2%. The result for `COc1ccc2cc(C3=CCCCC3)ncc2c1` reads 27.6%; that for `Cc1onc(-c2ccccc2Cl)c1C(=O)Nc1ccc(-c2cn3cccnc3n2)cc1`, -4.7%.

For `O=C(NCc1cccc(Cl)c1)c1cnccn1`, the inhibition was -2.82%. The result for `Cc1ccc(C)n1-c1nnc(N2CCC(C(=O)N3CCN(C)CC3)CC2)s1` reads -8.85%; that for `COc1cccc(C(=O)Nc2ccc3c(cc2=O)[C@@H](NC(C)=O)CCc2cc(OC)c(OC)c(OC)c2-3)c1`, 39%. To `COc1ccc(CC(=O)NNC(=O)c2cc(C)[nH]n2)cc1` belongs -0.79%. To `CC(=O)Nc1ccc(S(=O)(=O)N2CCN=C2SCc2cccc(C)c2)cc1` belongs 5.97%; to `Cc1ccc2nc(NC(=O)C3CCN(c4ncnc5sc(C)c(C)c45)CC3)sc2c1`, 6.48%. Turning to `COc1ccc(-c2cc(C(=O)N3CCN(S(=O)(=O)c4ccccc4)CC3)[nH]n2)cc1`, the inhibition was -9.05%.

Turning to `CCCCn1c(SCC(=O)Nc2cc(C)on2)nnc1-c1cccnc1`, the inhibition is -2.44%. The result for `CC(=O)c1ccc(OCCCC(=O)N2CCN(S(=O)(=O)c3cccs3)CC2)cc1` reads 6.75%; that for `Cc1ccnc(-n2c(C)cc(/C=C3\C(=O)NC(=S)N(C)C3=O)c2C)c1`, -14.2%. The result for `CCOC(=O)c1cc(-c2ccccc2)nc2ccc(C)cc12` reads 44.3%; that for `CCOC(=O)C1CCN(c2cc(C)nc3cc(-c4cccc(F)c4)nn23)CC1`, -4.68%. The result for `Cn1c(=O)c2c(nc(NCC3CCCC(CN)C3)n2Cc2ccc(Cl)cc2Cl)n(C)c1=O` (stereo not drawn) reads 4.91%; that for `COc1ccc(C)cc1-n1c(SCC(=O)NCC2CCCO2)nc2c([nH]c3ccccc32)c1=O` (stereo not drawn), -1.41%. Take `O=C(NCc1ccc2c(c1)OCO2)c1cc(COc2c(F)cccc2F)on1`: the inhibition stood at 2.86%.

In the case of `CCc1c(C(=O)NCc2ccc3c(c2)OCO3)[nH]c(C)c1C(C)=O`, the inhibition was found to be 1.22%. For `COc1cccc(-c2cc(C(=O)N/N=C/c3ccco3)c3ccccc3n2)c1`, the inhibition came to 12.7%. The result for `N#Cc1c(-c2cccs2)cc(-c2ccccn2)nc1N` reads 42%.

Take `CC(=O)Nc1ccc(S(=O)(=O)N2CCN=C2SCc2ccc(C)cc2)cc1`: the inhibition was determined as 9.48%. The result for `CSc1ccccc1NC(=O)c1c(Br)cnn1C` reads 22.9%; that for `CCN1C(=O)NC(=O)/C(=C\c2cn(CC(=O)N3CCCCC3C)c3ccccc23)C1=O` (stereo not drawn), 3.41%; that for `O=C(C1CC(c2ccc(F)cc2)=NO1)N1CCCCC1` (stereo not drawn), -10.7%. The result for `COc1cc(-n2c(C)nc3cc(C(=O)NCC4CCCO4)ccc32)cc(OC)c1OC` (stereo not drawn) reads -7%; that for `CCn1cc(C(=O)NC2CCCc3c2cnn3-c2cccc(C)c2C)cn1` (stereo not drawn), -3.59%; that for `CCn1c2ccccc2c2cc(/C=N/NC(=O)c3cccc(C)c3)ccc21`, -6.93%. The result for `COc1ccc(NC(=O)CSc2ccc3nnc(-c4ccccn4)n3n2)c(OC)c1` reads 5.64%; that for `O=C(CSc1nnc(-c2ccco2)n1-c1ccccc1)NCc1ccc2c(c1)OCO2`, -1.79%; that for `CCOc1cccc(/C=N/Nc2nc(N3CCCC3)nc(N3CCCC3)n2)c1O`, 26.6%. Regarding `O=C1C2C3C=CC(C3)C2C(=O)N1c1cccc(N2C(=O)C3C4C=CC(C4)C3C2=O)n1` (stereo not drawn), the inhibition was determined as 1.59%.

For `CCn1cc(S(=O)(=O)c2ccc(OC)cc2)c(=O)c2cc(F)c(N3CCN(C)CC3)cc21`, the inhibition is -0.41%. On to `CCCc1cc(N2CCOCC2)n2nc(C)c(-c3ccccc3)c2n1`, for which the inhibition is -0.6%.

For the compound `CC12CCCC[C@@H]1CCC1C2CCC2(C)C1CC[C@@]2(O)CNCCO` (stereo partly drawn), the inhibition is 40.9%. The result for `Cc1cc(C)cc(OCC(=O)OCC(=O)c2cc(C)n(C3CC3)c2C)c1` reads 54.3%. To `C=C(C)Cn1c(SCC(=O)N/N=C/c2c(O)ccc3ccccc23)nc2ccccc2c1=O` belongs -0.8%; to `Cc1ccc(N=Cc2c(O)ccc3ccccc23)cc1F`, 12.8%.

Consider `CCN(CC)S(=O)(=O)c1ccc2[nH]c(=O)cc(C(=O)Nc3ccccc3N3CCCC3)c2c1`, for which the inhibition was 3.07%. The result for `CC1Oc2ccccc2N(CC(=O)N(Cc2ccccc2)Cc2ccccn2)C1=O` (stereo not drawn) reads 2.63%; that for `O=C(Nc1ccccc1F)C1CCCN(S(=O)(=O)c2cccc3cccnc23)C1` (stereo not drawn), -7.93%.

Turning to `O=C(C1=C[C@H](c2ccc(Br)cc2)C[C@H](OCCCCO)O1)N1CCN(Cc2ccc3c(c2)OCO3)CC1`, the inhibition is 37%. The result for `Cc1cccc(CNC(=O)C2CCC(=O)N(C3CCCCCC3)C2)c1` (stereo not drawn) reads 10.8%; that for `Cc1ccc(C)c(S(=O)(=O)NC(C)C(=O)NCc2ccccn2)c1` (stereo not drawn), 7.68%. In the case of `Nc1ccc(N=Nc2ccccc2O)c(N)c1`, the inhibition amounted to 11.2%.

For the compound `O=C(NC1CCCCC1)C1CCN(c2nccs2)CC1`, the inhibition is 39%. For `Cc1ccc(NC(=O)c2nc[nH]c2C(=O)NCc2ccccc2)cc1`, the inhibition amounted to 50.8%.

For `CNC(C)C(=O)NC(C(=O)N1CCCC1C(=O)NNc1ccccc1)C(C)C` (stereo not drawn), the inhibition worked out at 72.1%. The result for `Cc1ccc(C)c(Cn2nnc3c(=O)[nH]c(C(=O)NCc4ccco4)nc32)c1` reads -0.21%.

With `C=CCn1cc(CN2CCC(C(=O)Nc3cccc(-c4cccc(F)c4)c3)CC2)c(C)n1`, the inhibition turned out to be 6.05%.

Turning to `COc1ccccc1-c1cc(C(=O)N/N=C/c2ccoc2)c2ccccc2n1`, the inhibition was 3.93%. To `Cc1ccc2occ(/C=C/C(=O)c3ccccc3O)c(=O)c2c1` belongs 14.2%; to `COc1cc(Cl)ccc1OCc1cc(C(=O)N2CCCC(OC)C2)no1` (stereo not drawn), 3.36%; to `Cc1ccccc1N(Cc1cc(=O)[nH]c2ccccc12)C(=O)CCl`, -3.84%.

With `CCN(CCn1cccn1)C(=O)CC1C(=O)NCCN1CCc1ccccc1` (stereo not drawn), the inhibition is -0.61%. On to `CN1C2CCC1CC(OC(=O)c1ccc([N+](=O)[O-])cc1)C2` (stereo not drawn), for which the inhibition was -3.6%.

`Cc1ccc(N2CC(C)Cn3c2nc2c3c(=O)[nH]c(=O)n2C)cc1C` (stereo not drawn): the inhibition was 4.12%.
